Among all 220,000 compounds or so, about 16,000 (7.3%) were called active. The shares of active, inactive and inconclusive entries below differ from those in the screen. The call rests on the fitted dose curve; in most records, active means well fitted inhibition curve with a large enough effect (not every such curve was filed as active); inconclusive means small, poorly fitted or top-dose-only effect, or another doubt; inactive means no such curve, though single readings can be large or run the other way. Potencies of inconclusive entries are left out as doubtful fits.
What follows are compounds tested against Aldehyde dehydrogenase 1A1 (Homo sapiens) (UniProt P00352) (assay: qHTS Assay for Inhibitors of Aldehyde Dehydrogenase 1 (ALDH1A1)). Settings: Purified ALDH1A1, NADH fluorescence, propionaldehyde substrate; series mostly up to 75.3 µM; activity, negative = inhibition: at the top concentration.
UniProt P00352, sequence (P00352 whole entry, looked up): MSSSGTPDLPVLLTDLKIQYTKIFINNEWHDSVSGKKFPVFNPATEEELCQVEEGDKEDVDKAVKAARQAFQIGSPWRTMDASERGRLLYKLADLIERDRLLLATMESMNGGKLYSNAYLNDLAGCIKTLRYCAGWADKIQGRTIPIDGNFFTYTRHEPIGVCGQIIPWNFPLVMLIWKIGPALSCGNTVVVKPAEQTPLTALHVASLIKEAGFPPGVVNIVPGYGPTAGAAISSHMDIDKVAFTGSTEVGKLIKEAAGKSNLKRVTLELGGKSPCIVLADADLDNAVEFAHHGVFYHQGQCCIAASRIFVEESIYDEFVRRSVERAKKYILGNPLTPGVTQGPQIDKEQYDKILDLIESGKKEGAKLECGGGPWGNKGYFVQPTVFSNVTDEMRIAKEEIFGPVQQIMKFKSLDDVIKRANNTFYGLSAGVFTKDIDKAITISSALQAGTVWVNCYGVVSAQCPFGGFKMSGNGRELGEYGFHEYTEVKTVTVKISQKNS
Potency means the concentration at half of the fitted maximal effect; tags describe the fitted curve by direction and shape.
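Wherever activity, negative = inhibition is given: plate controls were no enzyme wells and a reference inhibitor.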

Which Potency does the source give for O=C(Nc1ccc(Cl)cc1)[C@@H]1[C@@H]2C(=O)N(c3ccc(Cl)cc3)C(=O)[C@@H]2[C@H]2C=CC=NN21 here?
The Potency was inconclusive [inhibitor, single point].

How did the “activity, negative = inhibition” value turn out when COc1ccc(CCn2ccc(O)c(Cc3c(F)cccc3Cl)c2=O)cc1OC was run?
Its value is inactive: -7.8%.

With O=S(=O)(NC1CCCCC1Oc1ccccc1)c1ccc(Cl)cc1 (stereo not drawn) as the compound, how does the Potency read?
Its Potency is inconclusive [inhibitor, partial curve].

How did the Potency turn out when CS(=O)(=O)N1CCN(Cc2ccc(C(F)(F)F)cc2)CC1 was run?
The Potency was inconclusive [inhibitor, partial curve].

With CC(C)Cc1cc(C(=O)N2CCC(N3CCC(C(=O)NC4CC4)CC3)CC2)n[nH]1 as the compound, how does the Potency read?
Its Potency is inconclusive [inhibitor, single point].

How did the Potency turn out when O=C(Cc1csc(N2CCOCC2)n1)N/N=C/c1ccc(O)c(O)c1O was run?
The Potency was active: 7.51 µM.

For COc1ccc(OC)c(C2=Nn3c(nnc3-c3cccc(OC(C)C)c3)SC2)c1, which Potency is on record?
The Potency was inconclusive [inhibitor, single point].

How did the Potency turn out when CC1CCc2nc(NC(=O)C3COc4ccccc4O3)sc2C1 (stereo not drawn) was run?
Its Potency is inconclusive [inhibitor, single point].

For CCn1cc(Br)c(C(=O)NC(=S)Nc2ccc(C(=O)OC)cc2)n1, which Potency is on record?
The Potency was inconclusive [inhibitor, single point].

How did the Potency turn out when COc1cc(NS(=O)(=O)c2ccc(NC(=S)NC(=O)c3ccco3)cc2)ncn1 was run?
Its Potency is inconclusive [inhibitor, single point].

Which Potency does the source give for O=C1CS/C(=C\S(=O)(=O)c2ccc(Cl)cc2)N1 here?
The Potency was inconclusive [inhibitor, single point].

How did the Potency turn out when CC(C)(O)C#Cc1ccc(CN2CCN(CCc3ccccc3)C(CCO)C2)s1 (stereo not drawn) was run?
The Potency was inconclusive [inhibitor, single point].

How did the “activity, negative = inhibition” value turn out when CC(C)(C)OC(=O)N1CCC[C@H]1c1nnc(SCc2ccccc2Cl)o1 was run?
Its value is inactive: -7.83%.

Which Potency does the source give for COc1ccccc1Nc1ccc(C(=O)O)cc1[N+](=O)[O-] here?
The Potency was inconclusive [inhibitor, full curve, poor fit].

Which “activity, negative = inhibition” value does the source give for Cc1ccc(NC(=O)CCCc2nc3ccccc3s2)c(O)c1 here?
The value was inactive: -0.823%.

CCCn1c(=O)[nH]c(=O)c2c1nc(-c1ccc(OC(F)F)c(OC)c1)n2CCOC was tested. Which Potency did it give?
The Potency was inconclusive [inhibitor, partial curve].

How did the Potency turn out when Cc1nnc(SC(=O)N2c3ccccc3Sc3ccccc32)s1 was run?
The Potency was inconclusive [inhibitor, single point].

With COc1cc2nc(=S)n(CCCN3CCOCC3)c(N)c2cc1OC as the compound, how does the “activity, negative = inhibition” value read?
Its value is inactive: -19%.

Which Potency does the source give for Cc1nc(CNS(=O)(=O)c2ccc3c(c2)CCCC3)cs1 here?
Its Potency is inconclusive [inhibitor, single point].

CCN(CC)C(=O)CC(c1ccc(F)cc1)c1ccc(OC)cc1 (stereo not drawn) was tested. Which “activity, negative = inhibition” value did it give?
Its value is inactive: 0.303%.

Which “activity, negative = inhibition” value does the source give for CN(CCOC(=O)CN1C(=O)c2ccccc2C1=O)C1=NS(=O)(=O)c2ccccc21 here?
The value was inactive: -0.469%.

For CCOC(=O)c1cc(-c2ccccc2)sc1NC(=O)CC, which Potency is on record?
The Potency was inconclusive [inhibitor, single point].

How did the “activity, negative = inhibition” value turn out when COc1cc(OC)c(NC(=O)Cn2cccc2)cc1Cl was run?
The value was inactive: -10.6%.

Which Potency does the source give for N#CC(C#N)=NNc1ccc(S(=O)(=O)N2CCCCC2)cc1 here?
The Potency was inconclusive [inhibitor, single point].

How did the Potency turn out when C=CCS/C(=N\n1cnc2ccccc2c1=O)N1CCCCC1 was run?
The Potency was inconclusive [inhibitor, single point].

With S=c1[nH]nc(CSc2nc3ccccc3s2)n1Cc1ccccc1 as the compound, how does the Potency read?
Its Potency is inconclusive [inhibitor, partial curve].

Which Potency does the source give for CC(=O)N[C@@H](CSC/C=C(\C)CC/C=C(\C)CCC=C(C)C)C(=O)O here?
Its Potency is “inactive”.

With O=C(O)CC1=C(Nc2ccccc2)C(=O)N(c2ccccc2)C1c1ccc(F)cc1 (stereo not drawn) as the compound, how does the Potency read?
The Potency was inconclusive [inhibitor, single point].

CNC(=O)CSc1nnc(-c2ccco2)n1-c1ccccc1OC was tested. Which Potency did it give?
Its Potency is active: 20 µM.

With Cc1cccc(C)c1NC(=O)C(NC(=O)c1ccccn1)c1ccccc1[N+](=O)[O-] (stereo not drawn) as the compound, how does the Potency read?
The Potency was inconclusive [inhibitor, single point].

Which Potency does the source give for C=CCc1cc(/C=N/n2cnnc2)cc(OCC)c1O here?
Its Potency is inconclusive [inhibitor, single point].

For CON/C=N/C(=S)Nc1ncc(C(F)(F)F)cc1Cl, which Potency is on record?
The Potency was inconclusive [inhibitor, single point].

Which Potency does the source give for CC(C)(C)C1=Nn2c(nnc2-c2ccco2)SC1 here?
The Potency was inconclusive [inhibitor, partial curve, poor fit].

With CCCCNC(=O)c1onc(CSc2ccccc2)c1C(=O)O as the compound, how does the “activity, negative = inhibition” value read?
Its value is inactive: -3.84%.

How did the Potency turn out when CCOC(=O)c1cc(-c2ccco2)nc2c1c(C)nn2-c1ccccc1 was run?
The Potency was inconclusive [inhibitor, partial curve].

With C[C@H]1C2=C3C(CC[C@H]4C(OCc5ccc(F)cc5C(F)(F)F)OC[C@](C)([C@@H]34)N(C(=O)OC(C)(C)C)C2)C(CO)C1CO (stereo partly drawn) as the compound, how does the “activity, negative = inhibition” value read?
The value was inactive: 3.92%.

Which “activity, negative = inhibition” value does the source give for CNC(=O)NC(=O)COC(=O)CCCSc1nc2ccccc2s1 here?
Its value is inactive: -2.36%.

With CCOC(=O)C(=CN=C(N)Nc1nc2ccccc2o1)C(=O)OCC as the compound, how does the Potency read?
The Potency was inconclusive [inhibitor, partial curve].

For COc1ccc(Cn2c(-c3ccc(OC)cc3)nc3ccccc32)cc1, which Potency is on record?
The Potency was inconclusive [inhibitor, single point].

Which “activity, negative = inhibition” value does the source give for O=C(CCN1C(=O)/C(=C/c2cccs2)SC1=S)NNC(=O)c1cccc(O)c1 here?
Its value is inactive: 1.24%.

Which “activity, negative = inhibition” value does the source give for Cc1cc(OC(=O)c2ccc3ccccc3c2)c([N+](=O)[O-])c(=O)[nH]1 here?
The value was inactive: 4.56%.

With COC(=O)c1sccc1NC(=O)CSCCc1ccccn1 as the compound, how does the “activity, negative = inhibition” value read?
The value was inactive: 9.97%.

Which Potency does the source give for NC(=O)c1c(NC(=O)CCCn2cnc([N+](=O)[O-])n2)sc2c1CCCC2 here?
Its Potency is active: 1.58 µM.

For Cc1ccc(C)c(-n2nnnc2SCC(=O)Nc2cccc(-c3nnc4n3CCCCC4)c2)c1, which Potency is on record?
Its Potency is active: 7.08 µM.

With CCOC(=O)c1sc2nccc(N(C)C)c2c1N=CNOCc1ccccc1 as the compound, how does the Potency read?
The Potency was inconclusive [inhibitor, single point].

How did the Potency turn out when COc1ccc(-c2nc3c(=O)n(C)c(=O)[nH]c3n2CCc2ccccc2)cc1 was run?
Its Potency is inconclusive [inhibitor, partial curve].

Which Potency does the source give for Cc1ccc(OCC(=O)N/N=C/c2cccn2C)cc1C here?
Its Potency is inconclusive [inhibitor, single point].

How did the Potency turn out when COc1ccc(-c2cc(-c3ccc(O)cc3)nc(N)c2C#N)cc1OC was run?
The Potency was inconclusive [inhibitor, partial curve, poor fit].

How did the Potency turn out when O=C(/C(=N\Nc1ccc(Br)cc1)Sc1nnnn1-c1ccccc1)c1ccccc1 was run?
Its Potency is active: 1.58 µM.

How did the Potency turn out when O=C(CNC(=O)c1ccco1)N/N=C/c1ccccc1[N+](=O)[O-] was run?
Its Potency is inconclusive [inhibitor, single point].

CCOC(=O)c1c(NC(=O)CN2CCCc3ccccc32)sc(C)c1CC was tested. Which Potency did it give?
Its Potency is inconclusive [inhibitor, single point].

CC(C)CC(=O)c1c[nH]c(C(=O)NCCc2ccccn2)c1 was tested. Which Potency did it give?
Its Potency is inconclusive [inhibitor, single point].

For COc1ccc(C(=O)CC(=O)C(=O)NCCc2cccc(C)c2)cc1, which Potency is on record?
The Potency was active: 2.24 µM.

How did the Potency turn out when Cc1ccc(C2=NC(C)(C)N=C2SCC(=O)Nc2ccc(Cl)cc2)cc1 was run?
The Potency was active: 22.4 µM.

How did the Potency turn out when CC1(C)Cc2c(sc(NC(=O)c3ccco3)c2C#N)CO1 was run?
The Potency was inconclusive [inhibitor, single point].

Which Potency does the source give for CC(=O)n1c2c(c3ccccc31)OC(N)=C(C#N)C2c1ccc(C(C)C)cc1 (stereo not drawn) here?
The Potency was inconclusive [inhibitor, single point].

How did the “activity, negative = inhibition” value turn out when CCOC(=O)CSc1nc2ccccc2c(=O)n1CC was run?
Its value is inactive: -4.26%.

Which Potency does the source give for O=c1[nH]c(=O)n(Cc2ccco2)c2c1C(C(F)(F)F)(C(F)(F)F)N=C(Cc1ccccc1)N2 here?
Its Potency is inconclusive [inhibitor, single point].

For O=C(NC(=S)Nc1cccc(NC(=O)c2ccccc2)c1)c1cccc([N+](=O)[O-])c1, which Potency is on record?
The Potency was inconclusive [inhibitor, partial curve].

For O=C(CN1C(=O)c2ccccc2C1=O)Nc1ccc(S(=O)(=O)NCC2CCCO2)cc1 (stereo not drawn), which “activity, negative = inhibition” value is on record?
Its value is inactive: -6.27%.

With Cc1cc(C)n2nc(C(=O)NNC(=O)c3ccccc3)nc2n1 as the compound, how does the “activity, negative = inhibition” value read?
Its value is inactive: -0.638%.

For Cc1ccccc1C(=O)NCC(=O)NNC(=S)NC(=O)c1ccccc1, which Potency is on record?
The Potency was inconclusive [inhibitor, single point].

For O=C(Cn1cc([N+](=O)[O-])cn1)Nc1cccnc1, which “activity, negative = inhibition” value is on record?
The value was inactive: 7.35%.

With Cc1occc1C(=O)N/N=C/C=C/c1ccccc1[N+](=O)[O-] as the compound, how does the “activity, negative = inhibition” value read?
The value was inactive: -7.37%.

Which Potency does the source give for O=C(NC(=S)Nc1ccccc1)c1csnn1 here?
The Potency was active: 7.94 µM.

COC(=O)c1cn(C(=O)c2ccccc2)c2ccccc12 was tested. Which Potency did it give?
The Potency was active: 6.31 µM.

With CCn1c(SCC(=O)N2CCCC2)nc2ccccc2c1=O as the compound, how does the “activity, negative = inhibition” value read?
Its value is inactive: -4.85%.

How did the Potency turn out when CC1CC(C)(C)Nc2ccc(N=O)cc21 (stereo not drawn) was run?
The Potency was active: 10 µM.

How did the Potency turn out when CCOC(=O)c1c(NC(=O)C2CCN(S(=O)(=O)c3cccs3)CC2)sc(C)c1C was run?
The Potency was inconclusive [inhibitor, single point].

NS(=O)(=O)c1ccc(N=Nc2nc3[nH]cnc(=S)c3[nH]2)cc1 was tested. Which Potency did it give?
The Potency was inconclusive [inhibitor, partial curve].

With O=C1c2[nH]nc(-c3ccccc3O)c2C(c2cccc(O)c2)N1Cc1ccco1 (stereo not drawn) as the compound, how does the Potency read?
The Potency was inconclusive [inhibitor, single point].

With CN(Cc1ccc(Cl)s1)C(=O)CCl as the compound, how does the Potency read?
The Potency was active: 0.355 µM.

For COc1ccc(S(=O)(=O)N2CCOCC2)cc1NS(=O)(=O)/C=C/c1ccccc1, which Potency is on record?
Its Potency is inconclusive [inhibitor, single point].
